# According to the supplement of paper PMC8728848:
# Some of the results follow.
# B1: Apa (Mycobacterium tuberculosis), Rv1860 (protein)
# chain: MHQVDPNLTRRKGRLAALAIAAMASASLVTVAVPATANADPEPAPPVPTTAASPPSTAAAPPAPATPVAPPPPAAANTPNAQPGDPNAAPPPADPNAPPPPVIAPNAPQPVRIDNPVGGFSFALPAGWVESDAAHFDYGSALLSKTTGDPPFPGQPPPVANDTRIVLGRLDQKLYASAEATDSKAAARLGSDMGEFYMPYPGTRINQETVSLDANGVSGSASYYEVKFSDPSKPNGQIWTGVIGSPAANAPDAGPPQRWFVVWLGTANNPVDKGAAKALAESIRPLVAPPPAPAPAPAEPAPAPAPAGEVAPTPTTPTPQRTLPA
# Legend:
# Test in all cases: glycan array binding signal (z-score within array); higher = stronger binding
# Settings in all cases: glycan notation: IUPAC condensed, linker removed
# Fuc(a1-2)Gal = biological target: Fuc(a1-2)Gal
# Procedure, shortened: (§1)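 The Consortium for Functional Glycomics database supplied 3228 glycan arrays, of which those lacking an available protein sequence were dropped. The binding signal, a within-array Z-score, was averaged across arrays of the same protein sequence and across linkers. Negative scores can be read as non-binding.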
# Fuc(a1-2)Gal(b1-3)GalNAc = biological target: Fuc(a1-2)Gal(b1-3)GalNAc
# Procedure, shortened: as §1
# [1] = biological target: Fuc(a1-2)Gal(b1-3)GalNAc(a1-3)[Fuc(a1-2)]Gal(b1-4)Glc
# Procedure, shortened: as §1
# [2] = biological target: Fuc(a1-2)Gal(b1-3)GalNAc(a1-3)[Fuc(a1-2)]Gal(b1-4)GlcNAc
# Procedure, shortened: as §1
# [3] = biological target: Fuc(a1-2)Gal(b1-3)GalNAc(b1-3)Gal
# Procedure, shortened: as §1
# [4] = biological target: Fuc(a1-2)Gal(b1-3)GalNAc(b1-3)Gal(a1-4)Gal(b1-4)Glc
# Procedure, shortened: as §1
# [5] = biological target: Fuc(a1-2)Gal(b1-3)GalNAc(b1-4)[Neu5Ac(a2-3)]Gal(b1-4)Glc
# Procedure, shortened: as §1
# Fuc(a1-2)Gal(b1-3)GlcNAc = biological target: Fuc(a1-2)Gal(b1-3)GlcNAc
# Procedure, shortened: as §1
# [6] = biological target: Fuc(a1-2)Gal(b1-3)GlcNAc(b1-2)Man(a1-3)[Fuc(a1-2)Gal(b1-3)GlcNAc(b1-2)Man(a1-6)]Man(b1-4)GlcNAc(b1-4)GlcNAc
# Procedure, shortened: as §1
# [7] = biological target: Fuc(a1-2)Gal(b1-3)GlcNAc(b1-2)Man(a1-3)[Fuc(a1-2)Gal(b1-3)GlcNAc(b1-2)Man(a1-6)]Man(b1-4)GlcNAc(b1-4)[Fuc(a1-6)]GlcNAc
# Procedure, shortened: as §1
# [8] = biological target: Fuc(a1-2)Gal(b1-3)GlcNAc(b1-3)Gal(b1-4)Glc
# Procedure, shortened: as §1
# [9] = biological target: Fuc(a1-2)Gal(b1-3)GlcNAc(b1-3)GalNAc
# Procedure, shortened: as §1
# [10] = biological target: Fuc(a1-2)Gal(b1-3)GlcNAc(b1-3)[Fuc(a1-2)Gal(b1-3)GlcNAc(b1-6)]GalNAc
# Procedure, shortened: as §1
# [11] = biological target: Fuc(a1-2)Gal(b1-3)GlcNAc(b1-3)[Gal(b1-4)GlcNAc(b1-6)]Gal(b1-4)Glc
# Procedure, shortened: as §1
# [12] = biological target: Fuc(a1-2)Gal(b1-3)GlcNAc(b1-3)[Neu5Ac(a2-6)Gal(b1-4)GlcNAc(b1-6)]Gal(b1-4)Glc
# Procedure, shortened: as §1
# [13] = biological target: Fuc(a1-2)Gal(b1-3)GlcNAc6S
# Procedure, shortened: as §1
# [14] = biological target: Fuc(a1-2)Gal(b1-3)[Fuc(a1-4)]GlcNAc
# Procedure, shortened: as §1
# [15] = biological target: Fuc(a1-2)Gal(b1-3)[Fuc(a1-4)]GlcNAc(b1-2)Man(a1-3)[Fuc(a1-2)Gal(b1-3)[Fuc(a1-4)]GlcNAc(b1-2)Man(a1-3)]Man(b1-4)GlcNAc(b1-4)GlcNAc
# Procedure, shortened: as §1
# [16] = biological target: Fuc(a1-2)Gal(b1-3)[Fuc(a1-4)]GlcNAc(b1-2)Man(a1-3)[Fuc(a1-2)Gal(b1-3)[Fuc(a1-4)]GlcNAc(b1-2)Man(a1-6)]Man(b1-4)GlcNAc(b1-4)[Fuc(a1-6)]GlcNAc(b1-4)[Fuc(a1-6)]GlcNAc
# Procedure, shortened: as §1
# [17] = biological target: Fuc(a1-2)Gal(b1-3)[Fuc(a1-4)]GlcNAc(b1-3)[Fuc(a1-3)[Gal(b1-4)]GlcNAc(b1-6)]Gal(b1-4)Glc
# Procedure, shortened: as §1
# [18] = biological target: Fuc(a1-2)Gal(b1-3)[Fuc(a1-4)]GlcNAc(b1-3)[Gal(b1-4)GlcNAc(b1-6)]Gal(b1-4)Glc
# Procedure, shortened: as §1
# [19] = biological target: Fuc(a1-2)Gal(b1-4)Fuc(a1-3)]GlcNAc(b1-2)Man(a1-3)[Fuc(a1-2)Gal(b1-4)[Fuc(a1-3)]GlcNAc(b1-2)Man(a1-6)]Man(b1-4)GlcNAc(b1-4)GlcNAc
# Procedure, shortened: as §1
# Fuc(a1-2)Gal(b1-4)Glc = biological target: Fuc(a1-2)Gal(b1-4)Glc
# Procedure, shortened: as §1
# Fuc(a1-2)Gal(b1-4)Glc6S = biological target: Fuc(a1-2)Gal(b1-4)Glc6S
# Procedure, shortened: as §1
# Fuc(a1-2)Gal(b1-4)GlcNAc = biological target: Fuc(a1-2)Gal(b1-4)GlcNAc
# Procedure, shortened: as §1
# [20] = biological target: Fuc(a1-2)Gal(b1-4)GlcNAc(b1-2)Man
# Procedure, shortened: as §1
# [21] = biological target: Fuc(a1-2)Gal(b1-4)GlcNAc(b1-2)Man(a1-3)[Fuc(a1-2)Gal(b1-4)GlcNAc(b1-2)Man(a1-6)]Man(b1-4)GlcNAc(b1-4)GlcNAc
# Procedure, shortened: as §1
# [22] = biological target: Fuc(a1-2)Gal(b1-4)GlcNAc(b1-2)Man(a1-3)[Fuc(a1-2)Gal(b1-4)GlcNAc(b1-2)Man(a1-6)]Man(b1-4)GlcNAc(b1-4)[Fuc(a1-6)]GlcNAc
# Procedure, shortened: as §1
# [23] = biological target: Fuc(a1-2)Gal(b1-4)GlcNAc(b1-2)[Fuc(a1-2)Gal(b1-4)GlcNAc(b1-4)]Man(a1-3)[Fuc(a1-2)Gal(b1-4)GlcNAc(b1-2)Man(a1-6)]Man(b1-4)GlcNAc(b1-4)GlcNAc
# Procedure, shortened: as §1
# [24] = biological target: Fuc(a1-2)Gal(b1-4)GlcNAc(b1-3)Gal(b1-4)GlcNAc
# Procedure, shortened: as §1
binder,measurement,setting,value
B1,glycan array binding signal (z-score),Fuc(a1-2)Gal,0.158
same,glycan array binding signal (z-score),Fuc(a1-2)Gal(b1-3)GalNAc,-0.082
same,glycan array binding signal (z-score),[1],2.08
same,glycan array binding signal (z-score),[2],1.19
same,glycan array binding signal (z-score),[3],4.21
same,glycan array binding signal (z-score),[4],0.117
same,glycan array binding signal (z-score),[5],-0.088
same,glycan array binding signal (z-score),Fuc(a1-2)Gal(b1-3)GlcNAc,-0.552
same,glycan array binding signal (z-score),[6],0.1
same,glycan array binding signal (z-score),[7],0.515
same,glycan array binding signal (z-score),[8],-0.255
same,glycan array binding signal (z-score),[9],-0.239
same,glycan array binding signal (z-score),[10],-0.06
same,glycan array binding signal (z-score),[11],-0.287
same,glycan array binding signal (z-score),[12],-0.081
same,glycan array binding signal (z-score),[13],0.469
same,glycan array binding signal (z-score),[14],-0.361
same,glycan array binding signal (z-score),[15],1.08
same,glycan array binding signal (z-score),[16],0.178
same,glycan array binding signal (z-score),[17],-0.325
same,glycan array binding signal (z-score),[18],-0.259
same,glycan array binding signal (z-score),[19],0.257
same,glycan array binding signal (z-score),Fuc(a1-2)Gal(b1-4)Glc,-0.059
same,glycan array binding signal (z-score),Fuc(a1-2)Gal(b1-4)Glc6S,-0.06
same,glycan array binding signal (z-score),Fuc(a1-2)Gal(b1-4)GlcNAc,-0.39
same,glycan array binding signal (z-score),[20],0.04
same,glycan array binding signal (z-score),[21],0.314
same,glycan array binding signal (z-score),[22],0.341
same,glycan array binding signal (z-score),[23],0.375
same,glycan array binding signal (z-score),[24],-0.329
